# Measurements: the supplement of paper PMC4166925
# ± gives the standard deviation of the averaged measurements. In all, about 33,000 sequences were measured (“E-score (dimensionless, -0.5 to 0.5)”: median about -0.046, highest 2% from about 0.36 on). The list shows a part of the results.
# Test system: T1, SpTbr T-box DNA-binding domain (GST fusion)
# T1 sequence: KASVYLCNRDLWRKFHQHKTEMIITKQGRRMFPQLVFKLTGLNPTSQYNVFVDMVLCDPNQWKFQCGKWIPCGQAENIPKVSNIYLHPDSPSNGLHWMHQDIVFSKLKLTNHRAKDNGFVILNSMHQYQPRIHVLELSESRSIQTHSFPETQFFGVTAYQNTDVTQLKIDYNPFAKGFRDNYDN
# Experiment: PBM E-score of 8-mer (E-score (dimensionless, -0.5 to 0.5)); Tbr is Tbrain of the sea star Patiria miniata (Pm) or the sea urchin Strongylocentrotus purpuratus (Sp); higher = stronger binding preference; most listed sequences are background and not binding sites
# Conditions: the construct has about 5 more residues each side
# Protocol: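 Universal protein-binding microarray (Agilent AMADID 016060, 60-bp probes with a 35-bp variable region) incubated with 200 nM GST-fused Strongylocentrotus purpuratus Tbr T-box DNA-binding domain (residues 362-554) in PBS pH 7.5. Scored for every ungapped 8-mer (given with its reverse complement) as E-score (range -0.5 to 0.5; >0.45 counts as bound) and Z-score of median probe intensity. Two replicate arrays (datasets 1 and 2).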
# 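Also: protein at 200 nM in PBS on universal double-stranded arrays.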
row,Sequence,PBM E-score of 8-mer
1,GAGTTGAA,0.0197 ± 0.058
2,GTCCCCTA,-0.1744 ± 0.00018
3,CATACGAA,-0.123 ± 0.0087
4,CTTCCCGC,0.0447 ± 0.03
5,AGTGAACT,-0.15 ± 0.029
6,CACTGCAA,0.0294 ± 0.028
7,CCATAAGG,-0.0717 ± 0.0012
8,AATCGGCG,0.0109 ± 0.019
9,TAAGGTCA,-0.204 ± 0.0041
10,ACGTCGCT,0.00858 ± 0.017
11,GGTTCCAC,0.0893 ± 0.0063
12,CGCCCGGA,-0.193 ± 0.024
13,ACGGCCCA,-0.208 ± 0.057
14,AGTTTCCG,-0.0927 ± 0.026
15,CAGTCTAG,-0.216 ± 0.039
16,ATTGGGCA,-0.312 ± 0.046
17,CTAGGTCA,-0.0382 ± 0.079
18,ATCGCTGG,-0.00641 ± 0.019
19,ACGTAGAA,-0.123 ± 0.062
20,TGAATCAA,-0.164 ± 0.048
21,ATCATCTC,-0.157 ± 0.014
22,GTTCAACA,-0.118 ± 0.054
23,AAACACCA,0.238 ± 0.027
24,AAAGTCTA,-0.128 ± 0.035
25,ATTCCACA,0.122 ± 0.012

row,Sequence,PBM E-score of 8-mer
1,GAGAACAA,0.193 ± 0.017
2,ACTGACGC,0.205 ± 0.0024
3,CCCATCAA,-0.218 ± 0.013
4,TGCTGCCA,0.0386 ± 0.0016
5,CACCTTCC,0.401 ± 0.014
6,GTATAGGA,-0.197 ± 0.048
7,GCCCCAGC,-0.145 ± 0.059
8,AAGTTCCC,-0.19 ± 0.011
9,AGGACTTG,-0.184 ± 0.0089
10,GCGAAGGA,0.12 ± 0.0058
11,ACGAGCGT,0.0712 ± 0.013
12,CGTCTGGA,-0.0646 ± 0.015
13,AGCCATGC,-0.214 ± 0.056
14,AGATGGGG,-0.048 ± 0.029
15,AACTTAGA,-0.1177 ± 0.0005
16,GGATCCTA,-0.166 ± 0.017
17,AGCTTTAT,-0.108 ± 0.053
18,AAATAGCA,0.199 ± 0.012
19,GACATTGA,-0.000185 ± 0.12
20,CCATCCAG,-0.0893 ± 0.03
21,CTCGCGGA,0.143 ± 0.14
22,ATTTCCAA,-0.13 ± 0.0086
23,AGCTCACA,0.23 ± 0.0052
24,CACTAGAC,0.107 ± 0.028
25,ACTGCTAA,0.193 ± 0.1

row,Sequence,PBM E-score of 8-mer
1,ATAGTGCA,-0.0294 ± 0.065
2,CCAACCGA,0.0295 ± 0.059
3,AGGCCCCA,-0.0759 ± 0.14
4,GATGCAGA,-0.0881 ± 0.054
5,CTAACGAG,0.15 ± 0.033
6,CCTGAACG,-0.068 ± 0.015
7,ACACACAA,0.148 ± 0.02
8,CGAGCGCC,-0.0102 ± 0.18
9,AGCTGAGG,0.0408 ± 0.035
10,CGAGGACC,0.0112 ± 0.036
11,CCGGTTCG,0.0166 ± 0.091
12,ACCCCTAA,-0.111 ± 0.012
13,ACAAAGGT,0.119 ± 0.0064
14,ACAAACGT,0.0139 ± 0.022
15,CGCGTTAC,0.127 ± 0.0069
16,GACCTAGA,-0.223 ± 0.017
17,CATAACGG,-0.0574 ± 0.062
18,GTTAAAAC,0.239 ± 0.028
19,TTCTAAAA,-0.167 ± 0.011
20,ATAATGCC,-0.199 ± 0.041
21,TACTCTGA,-0.25 ± 0.034
22,CATTTCCC,-0.0373 ± 0.0013
23,CGTCCTAA,-0.188 ± 0.032
24,GCGTGCAC,0.0755 ± 0.032
25,ATGTCTAC,-0.243 ± 0.011

row,Sequence,PBM E-score of 8-mer
1,AAAAAACT,-0.169 ± 0.046
2,GATACATC,0.0657 ± 0.038
3,ATGTTGGA,-0.0349 ± 0.065
4,GCTTTCCA,-0.122 ± 0.037
5,GGTTTTCA,-0.0937 ± 0.091
6,AAGATGCC,-0.086 ± 0.038
7,CTCCAAAG,-0.0265 ± 0.11
8,AGGGGAAC,-0.203 ± 0.014
9,ACTTTAGC,0.0902 ± 0.074
10,CCTACTCG,-0.0254 ± 0.027
11,CATAAACC,-0.154 ± 0.017
12,AGGTATGG,-0.189 ± 0.052
13,AGGCCGAG,-0.00279 ± 0.03
14,TGGCTGAA,-0.117 ± 0.0019
15,ATGTCGGG,-0.00289 ± 0.027
16,CAGATCGA,-0.12 ± 0.014
17,AACACTAA,0.247 ± 0.029
18,AACAACTG,0.206 ± 0.046
19,GGAAATGA,-0.187 ± 0.048
20,GATAAGGA,-0.146 ± 0.046
21,AATCACGT,0.118 ± 0.0071
22,CGCTAGCA,0.205 ± 0.012
23,GCACGAAC,0.0476 ± 0.034
24,GGAATCAC,0.0517 ± 0.012
25,CCATCTAA,-0.174 ± 0.059

row,Sequence,PBM E-score of 8-mer
1,AGAGCACG,-0.126 ± 0.039
2,AAATTAAG,-0.388 ± 0.021
3,CTATAACC,0.073 ± 0.07
4,CCATGCGG,-0.174 ± 0.044
5,AGTTATTA,0.227 ± 0.028
6,CTTCCTGC,-0.108 ± 0.004
7,CAGTGCTA,0.159 ± 0.0028
8,GTCATGCA,-0.182 ± 0.042
9,CCCCCACG,-0.104 ± 0.021
10,ACATCGGA,0.0649 ± 0.018
11,AGCCTGTG,0.0745 ± 0.026
12,ATCTCTAC,-0.113 ± 0.076
13,CACTGCCG,0.0182 ± 0.06
14,GACTTTAA,-0.226 ± 0.063
15,ACCTTGTG,0.238 ± 0.04
16,ATAACAAA,0.0503 ± 0.031
17,AGACAGGG,-0.112 ± 0.013
18,ACAACTTA,0.187 ± 0.0019
19,GTCCGTTA,-0.103 ± 0.061
20,AAAATACA,-0.102 ± 0.0041
21,CGAATAGC,0.074 ± 0.005
22,GAAGGGCA,0.0018 ± 0.0055
23,CAGTCACC,0.109 ± 0.0097
24,ACGGGTCT,0.0764 ± 0.029
25,AGGATTTC,-0.0945 ± 0.063

row,Sequence,PBM E-score of 8-mer
1,AAGTAGCA,0.119 ± 0.071
2,CCTGTCAG,0.17 ± 0.015
3,ACTGCGCC,0.0616 ± 0.043
4,ATGGAACC,-0.165 ± 0.072
5,AAGCACTA,-0.154 ± 0.068
6,CACTAGGA,-0.0843 ± 0.041
7,TATTGGCA,0.149 ± 0.033
8,GCTCCTTA,-0.169 ± 0.027
9,TCGCCCCA,0.0276 ± 0.008
10,AACTACGA,-0.178 ± 0.042
11,CCACTACC,-0.129 ± 0.0055
12,GGAGCGCC,0.0178 ± 0.0015
13,CCTCCGAC,0.0983 ± 0.037
14,CTAACACA,0.354 ± 0.0043
15,CCCGAGCC,-0.0779 ± 0.015
16,ATGTTAGA,-0.136 ± 0.095
17,CTATTATA,-0.0945 ± 0.038
18,AACAGGAA,-0.0975 ± 0.077
19,CATCTGTC,0.205 ± 0.021
20,CCAGTCCA,-0.0564 ± 0.073
21,CCCAAATC,-0.108 ± 0.11
22,CCAGGATC,-0.202 ± 0.097
23,ATCACTCG,-0.0664 ± 0.056
24,AGCTGCAG,0.104 ± 0.069
25,GTTTTAGA,-0.0895 ± 0.069

row,Sequence,PBM E-score of 8-mer
1,CCTAAAGG,0.0965 ± 0.024
2,AGCAGGTC,-0.0223 ± 0.011
3,AGACTGCA,-0.281 ± 0.021
4,CAAATCAC,0.172 ± 0.11
5,AGATGCCT,-0.0877 ± 0.03
6,AGTAAACG,-0.0624 ± 0.022
7,CGATGAAA,-0.0179 ± 0.035
8,CATATGGG,0.0581 ± 0.00073
9,GTCGCACA,0.3754 ± 0.0036
10,GCGCCAAA,0.286 ± 0.0062
11,CCTCGGAC,-0.228 ± 0.056
12,ACTCGACG,-0.036 ± 0.039
13,GCCTCCGC,-0.2 ± 0.11
14,CCGATTAA,-0.0536 ± 0.02
15,GCCGTCCC,-0.0174 ± 0.12
16,AATACTTC,-0.00484 ± 0.0061
17,CGTAACCC,-0.0666 ± 0.065
18,ACATCGTC,0.0988 ± 0.072
19,CATTGTCC,0.117 ± 0.047
20,CGGTGCAG,-0.078 ± 0.065
21,ACCTCTAC,0.0249 ± 0.026
22,GGACCCCA,-0.364 ± 0.02
